SMILES strings stand for the structures. Where “and” joins values, the source holds several entries; their conditions need not be identical. Equal entries are not always repeated. About 1,200 (2.5%) of roughly 48,000 compounds were called active. Inconclusive results (about 2%) are left out.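 How the source made its calls: active means activation of at least 60% and not above a set upper limit (about 1 call in 100 departs from these limits); inconclusive means activation of 40% to 60%, or above that upper limit; inactive means activation under 40%.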 The list shows a part of the results.

UniProt O75388, sequence (O75388 whole entry, looked up, the tested form may be a part): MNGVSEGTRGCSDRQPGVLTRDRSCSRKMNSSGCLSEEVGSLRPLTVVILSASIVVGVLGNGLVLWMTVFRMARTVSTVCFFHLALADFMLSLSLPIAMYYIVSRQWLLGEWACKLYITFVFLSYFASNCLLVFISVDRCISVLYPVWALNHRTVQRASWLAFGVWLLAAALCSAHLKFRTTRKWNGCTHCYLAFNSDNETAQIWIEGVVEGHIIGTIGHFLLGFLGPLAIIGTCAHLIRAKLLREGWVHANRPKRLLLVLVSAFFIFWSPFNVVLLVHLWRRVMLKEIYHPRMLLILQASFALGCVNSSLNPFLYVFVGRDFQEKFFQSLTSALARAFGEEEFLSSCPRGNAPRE

This experiment addresses Probable G-protein coupled receptor 32 (Homo sapiens) (UniProt O75388). Nature of the experiment: qHTS for Agonists of Human Resolvin D1 Receptor DRV1. The conditions noted are these: CHO-K1 GPR32 beta-arrestin PathHunter luminescence, 90 min; at 76.9 µM; active compounds read high; zero percent set by DMSO-only wells. In outline:
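PathHunter enzyme-fragment complementation, CHO-K1 GPR32 stable line; 2,500 cells/well, overnight attach; cpd 90 min 37 °C 5% CO2; detection reagent 1 h RT; chemiluminescence. DMSO = EC0.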
As for `CCCCNC(=O)C(Cc1ccccc1)NS(=O)(=O)c1ccc2c(c1)c(=O)n(C)c(=O)n2C` (stereo unspecified), the activation was inactive: 9.67%. In the case of `CC(C)c1ccc(N2C(=O)CS(=O)(=O)C23C(=O)N(Cc2cccc(F)c2)c2ccccc23)cc1` (stereo unspecified) it was inactive: -3.28%.

With `CCC1CN(C(=O)NCc2ccc(C)cc2)c2ccccc2O1` (stereo unspecified), the activation was inactive: -32%. Consider `Cc1cc(C)c(OCC(=O)N(Cc2ccco2)Cc2ccco2)c(C)c1`, for which the activation was inactive: 5.18%. In the case of `CCOC(=O)c1ccc(NS(=O)(=O)c2ccc(-c3cc(C)no3)cc2)cc1` it was inactive: -7.37%; in that of `Cc1ccc(C)c(NC(=O)c2cc(S(=O)(=O)N3CCCc4ccccc43)ccc2F)c1`, inactive: -26.5%; in that of `Cc1cc2c(C(C)C)c(O)c(O)c(C=O)c2c(O)c1-c1c(C)cc2c(C(C)C)c(O)c(O)c(C=O)c2c1O`, inactive: -6.44% and inactive: -19.4%. Take `COc1ccccc1CCNC(=O)c1ccc(-c2nc(CSc3ccc(C)cc3)c(C)o2)cc1`: the activation is inactive: 0.389%. Next, `CSc1ncc(C(=O)Nc2c(C)cccc2C)c(-c2ccccc2)n1`: inactive: 1.18%; `Cc1nc2ccccc2c(=O)n1-c1ccc(NC(=O)c2cccc([N+](=O)[O-])c2)cc1`: inactive: 48.6%; `COc1ccc(Cn2ccc3nc(C)c(C(=O)Nc4cc(C)cc(C)c4)cc3c2=O)cc1`: inactive: -16.4%.

Take `Cc1ccccc1S(=O)(=O)Cc1ccc(C(=O)NC2CCC(C)CC2)o1` (stereo unspecified): the activation is inactive: -8.54%. In the case of `CCOc1ccc(NC(=O)Cn2c(=O)n(-c3ccccc3)c(=O)c3ccc(C(=O)NCc4ccc5c(c4)OCO5)cc32)cc1` it was inactive: -11.5%. Next, `CCC(C)NC(=O)CSc1nc2cc3c(cc2c(=O)n1CCCCCC(=O)NCc1ccc2c(c1)OCO2)OCO3` (stereo unspecified): inactive: -6.8%; `Cc1nc2nc[nH]n2c(=O)c1CCC(=O)Nc1ccc(F)cc1`: inactive: -7.27%. In the case of `Cc1ccc(CNC(=O)C2CCN(S(=O)(=O)c3ccc4[nH]c(=O)ccc4c3)CC2)cc1` it was inactive: -6.55%; in that of `CCOc1ccc(-n2ccnc2SCC(=O)Nc2nc3ccc(C)cc3s2)cc1`, inactive: -4.56%; in that of `Cc1cc(-c2ccc(C)c(S(=O)(=O)NC3CCCCC3)c2)on1`, inactive: -17.7%.

For `O=C(Cn1c(=O)n(Cc2cccs2)c(=O)c2cccnc21)Nc1ccc(F)cc1`, the activation is inactive: -8.98%. Next, `COc1cccc2cc(C(=O)Nc3ccc(F)c(F)c3)c(=O)oc12`: inactive: -16.2%.

Consider `CC1(C)C(=O)N(CC(=O)Nc2cccc(F)c2)c2ccc(S(=O)(=O)N3CCCCC3)cc21`, for which the activation was inactive: -3.31%. Next, `Cc1nn(-c2ccccc2)c2c1N(CC(=O)N1CCN(c3ccc(F)cc3)CC1)C(=O)CS2`: inactive: 1.25%; `CCOc1cc(-c2nnc(SCC(=O)NC3CCCC3)nc2-c2ccc(OC)c(OCC)c2)ccc1OC`: inactive: -29.5%. Next, `Cc1ccc(Cl)cc1-n1c(=O)c2sc3ccccc3c2n(Cc2ccccc2)c1=O`: inactive: 3.3%; `CCCCCSc1nnc(-c2ccc(Br)cc2)o1`: inactive: 3.74%; `Nc1ncnc(Nc2ccccc2)n1`: inactive: 2.15%. Next, `CC(C)CCN1C(=O)c2ccccc2CC1(C)C(=O)NC1CCC(C)CC1` (stereo unspecified): inactive: -5.08%. As to `O=C(CSc1nccn1C1CCCC1)Nc1ccc(C(F)(F)F)cc1`, the activation is inactive: -1.98%. Next, `COc1ccc(NC(=O)C2CCN(S(=O)(=O)c3ccc4[nH]c5c(c4c3)CCCCC5)CC2)cc1`: inactive: -7.44%; `CCOc1ccc(NC(=O)Cn2cc(S(=O)(=O)NC)c(S(=O)(=O)NC)c2)cc1`: inactive: -13%. In the case of `O=C(Nc1cccc(F)c1)[C@H](CSCc1ccccc1)N1Cc2ccccc2C1=O` it was inactive: -4.41%; in that of `CC(C)c1ccc(-c2nc(C(N)=O)c3c(n2)n(-c2ccc4c(c2)OCO4)c(=O)n3C)cc1`, inactive: -4.72%; in that of `CC(=O)N1CCc2nc3sc(C(=O)c4ccc(F)cc4)c(N)c3c(C(F)(F)F)c2C1`, inactive: -16.9%. Next, `Cc1ccc(NC(=O)CSc2nc(=O)n(CCN3CCOCC3)c3c2CCC3)c(C)c1`: inactive: -5.34%. `Cc1ccc(C(=O)Nc2ccc(S(=O)(=O)N3CCC(c4nc5ccccc5s4)CC3)cc2)cc1`: the activation was inactive: 2.54%. With `Cc1ccc(OCC(=O)Nc2nnc(S(=O)(=O)N3c4ccccc4CC3C)s2)cc1` (stereo unspecified), the activation was inactive: 9.85%. For `Cc1ccc(NC(=O)c2nc(S(C)(=O)=O)ncc2N(Cc2ccco2)Cc2cccs2)c(C)c1`, the activation was inactive: -23.6%.

With `CCc1ccc(NC(=O)C(=O)NCC(c2cccnc2)N2CCN(c3ccc(F)cc3)CC2)cc1` (stereo unspecified), the activation was inactive: 4.21%. Next, `CC(=O)c1cccc(NC(=O)c2nc(-c3ccccc3)n(-c3cccc(Cl)c3)n2)c1`: inactive: -24%; `Cc1ccc(OCCCCn2nnc3sc4c(c3c2=O)CCCC4)cc1`: inactive: -0.338%; `Cc1nnc(N2CCC(C(=O)N3CCCCC3)CC2)c2nn(-c3ccc(Cl)cc3)c(C)c12`: inactive: 10.4%.

As to `CC(=O)c1cc(-c2ccccc2)n(CCC(=O)NCc2ccc(C)cc2)c1C`, the activation is inactive: -21%. Next, `CCc1ccc(NC(=O)Cn2c(=O)n(CCCCC(=O)NCc3ccc4c(c3)OCO4)c(=O)c3ccccc32)cc1`: inactive: -6.24%; `CCOc1ccccc1Nc1sc(C(=O)c2ccccc2)c(N)c1C(=O)Nc1ccccc1`: inactive: -71.8%; `COc1ccc(-c2noc(N(c3nc(-c4ccc(OC)c(OC)c4)no3)c3ccccc3OC)n2)cc1OC`: inactive: -0.772%.

Consider `COc1ccc(-c2nn3c(=O)cc(CN4CCN(C(=O)c5ccc(OC)c(OC)c5)CC4)nc3s2)cc1`, for which the activation was inactive: -11.1%. For the compound `CCOc1ccccc1CNc1ccc2cc(S(=O)(=O)N3CCC(C)CC3)ccc2n1`, the activation is inactive: -7.67%. For the compound `CC(C)(C)c1ccc(C(=O)Nc2ccc3c(c2)CCCN3C(=O)c2cccs2)cc1`, the activation was inactive: -3.07%. In the case of `CCOc1ccccc1NC(=O)c1ccc2c(Cl)c3c(nc2c1)CCC3` it was inactive: 26%; in that of `COc1cc(NC(=O)CN2c3ccccc3S(=O)(=O)c3ccccc32)cc(OC)c1`, inactive: -6.31%.

For `CCCC(O)c1nc2ccccc2n1Cc1ccccc1OC` (stereo unspecified), the activation was inactive: 24.1%. For the compound `CCC1CN(C(=O)N2CCC(C(=O)NCCc3ccccc3Cl)CC2)c2cc(C)ccc2O1` (stereo unspecified), the activation is inactive: -15.2%. In the case of `Cc1ccc(Nc2nnc(-c3ccc(C)c(S(=O)(=O)N4CCN(C)CC4)c3)c3ccccc23)cc1` it was inactive: 9.13%. Next, `CCOCCCn1c(SCC(=O)OCC)nc2c(sc3ccccc32)c1=O`: inactive: 1.88%; `COCCNC(=O)CSc1nc(-c2cc(OC)c(OC)c(OC)c2)[nH]c1-c1ccc(Cl)cc1`: inactive: -22%. In the case of `Cc1cccc(C(C)C)c1NC(=O)C1CCCN1S(=O)(=O)c1cccc2nsnc12` (stereo unspecified) it was inactive: -10.2%. As for `Cc1ccc(C(=O)CSc2nc(-c3ccccc3)nc3c2CCCC3)c(C)c1`, the activation was inactive: -10.7%. In the case of `COc1ccc(CCNC(=O)C2CCC(CNS(=O)(=O)c3ccc(C)cc3)CC2)cc1OC` (stereo unspecified) it was inactive: 0.268%. Next, `CNC(=O)C1CCC(Cn2c(=O)c3sccc3n(CC(=O)Nc3ccc(C)c(C)c3)c2=O)CC1` (stereo unspecified): inactive: -8.71%. Next, `O=S(=O)(c1ccccc1)c1nnn2c1nc(NC1CCCCC1)c1sccc12`: inactive: 2.28%; `CCCCn1cc(S(=O)(=O)c2ccc(OC)cc2)c(=O)c2cc(CC)ccc21`: inactive: -19.5%. Consider `Nc1ncnc2c1nc(Sc1ccc(Cl)cc1)n2[C@H]1OC2COP(=O)(O)O[C@@H]2C1O` (stereo partly specified), for which the activation was inactive: 4.87%. Next, `CCc1ccc(NC(=O)CN(c2ccc(C)cc2)S(=O)(=O)c2cccs2)cc1`: inactive: -2.83%; `COc1ccc(-c2cc(C)no2)cc1S(=O)(=O)N1CCc2ccccc21`: inactive: -18.5%; `Cn1c(=O)c2c(SCC(=O)Nc3ccccc3C(F)(F)F)nc(C3CCCC3)nc2n(C)c1=O`: inactive: 4.46%.

Consider `Cc1ccc(Cl)cc1NC(=O)Nc1nnc(N(C)Cc2ccccc2)s1`, for which the activation is inactive: -18.4%. Next, `O=C(O)CCCCn1c(SCC(=O)Nc2ccccc2C(F)(F)F)nc2ccsc2c1=O`: inactive: -17.4%; `Cc1ccc(CN(C(=O)c2ccccc2)c2ccccn2)o1`: inactive: -5.25%.

In the case of `O=C(Nc1cccc(C(=O)N2CCN(c3cccc(Cl)c3)CC2)c1)c1nsc2ccccc12`, the activation was inactive: -13.1%. With `COc1cc(OC)c(NC(=O)c2nn(-c3ccc(C)cc3)c(=O)c3c2c2ccccc2n3C)cc1Cl`, the activation is inactive: -1.46%. In the case of `Cc1ccccc1Cn1c2ccccc2c2cnn(CC(=O)NCC(C)c3ccccc3)c(=O)c21` (stereo unspecified) it was inactive: -8.18%. Next, `Cc1c(C)n(Cc2ccccc2)c2ccc(C(=O)OCCN(C)C)cc12`: inactive: 5.2%; `CCc1ccccc1NC(=O)c1ccc2c(SCC(=O)O)c3c(nc2c1)CCC3`: inactive: -1.48%. Next, `O=C(NCc1ccccc1Cl)c1ccc(Cn2c(SCc3ccccc3)nc3cccnc32)cc1`: inactive: -4.83%; `CCOC(=O)C1CCN(C(=O)c2ccc(NC(=O)c3nsc4ccccc34)cc2)CC1`: inactive: -4.36%; `CSc1ccc(CCNC(=O)C(C)n2nc(C)c3sc4ccccc4c3c2=O)cc1` (stereo unspecified): inactive: -9.76%. On to `CCOc1ccc(C2c3c(oc4ccc(C)cc4c3=O)C(=O)N2CCCN(C)C)cc1` (stereo unspecified), for which the activation is inactive: -6.48%. Next, `O=C(CCn1ccc2cc(S(=O)(=O)N3CCCC3)ccc21)NCc1cccc(Cl)c1`: inactive: 10.5%; `CC(=O)N1c2ccc(S(=O)(=O)NCC3CCC(C(=O)Nc4ccc(C)c(C)c4)CC3)cc2CC1C` (stereo unspecified): inactive: -7.5%. In the case of `Cc1ccc(NC(=O)c2ccc(CNS(=O)(=O)c3ccc4c(c3)C(C)(C)C(=O)N4C)cc2)cc1C` it was inactive: 2.43%; in that of `Cc1cc(C(=O)NCc2cccc(Br)c2)c2c(C)nn(-c3ccccc3)c2n1`, inactive: -7.43%.

The values are drawn from PubChem BioAssay AID1346428 (National Center for Advancing Translational Sciences (NCATS), 2018).
